# Measurements taken from paper PMC4336329 (PLoS ONE, 2015).
# The campaign covered roughly 310,000 compounds. About 2,200 (0.71%) showed an effect of 50% or more. Effects have a minus sign here. The list shows a part of the results.
# Target: human ether-à-go-go-related gene (hERG) potassium channel (human, UniProt Q12809)
# Assay: primary screen, population patch clamp on CHO cells stably expressing hERG
# Chain of human ether-à-go-go-related gene (hERG) potassium channel (Q12809 whole entry, looked up): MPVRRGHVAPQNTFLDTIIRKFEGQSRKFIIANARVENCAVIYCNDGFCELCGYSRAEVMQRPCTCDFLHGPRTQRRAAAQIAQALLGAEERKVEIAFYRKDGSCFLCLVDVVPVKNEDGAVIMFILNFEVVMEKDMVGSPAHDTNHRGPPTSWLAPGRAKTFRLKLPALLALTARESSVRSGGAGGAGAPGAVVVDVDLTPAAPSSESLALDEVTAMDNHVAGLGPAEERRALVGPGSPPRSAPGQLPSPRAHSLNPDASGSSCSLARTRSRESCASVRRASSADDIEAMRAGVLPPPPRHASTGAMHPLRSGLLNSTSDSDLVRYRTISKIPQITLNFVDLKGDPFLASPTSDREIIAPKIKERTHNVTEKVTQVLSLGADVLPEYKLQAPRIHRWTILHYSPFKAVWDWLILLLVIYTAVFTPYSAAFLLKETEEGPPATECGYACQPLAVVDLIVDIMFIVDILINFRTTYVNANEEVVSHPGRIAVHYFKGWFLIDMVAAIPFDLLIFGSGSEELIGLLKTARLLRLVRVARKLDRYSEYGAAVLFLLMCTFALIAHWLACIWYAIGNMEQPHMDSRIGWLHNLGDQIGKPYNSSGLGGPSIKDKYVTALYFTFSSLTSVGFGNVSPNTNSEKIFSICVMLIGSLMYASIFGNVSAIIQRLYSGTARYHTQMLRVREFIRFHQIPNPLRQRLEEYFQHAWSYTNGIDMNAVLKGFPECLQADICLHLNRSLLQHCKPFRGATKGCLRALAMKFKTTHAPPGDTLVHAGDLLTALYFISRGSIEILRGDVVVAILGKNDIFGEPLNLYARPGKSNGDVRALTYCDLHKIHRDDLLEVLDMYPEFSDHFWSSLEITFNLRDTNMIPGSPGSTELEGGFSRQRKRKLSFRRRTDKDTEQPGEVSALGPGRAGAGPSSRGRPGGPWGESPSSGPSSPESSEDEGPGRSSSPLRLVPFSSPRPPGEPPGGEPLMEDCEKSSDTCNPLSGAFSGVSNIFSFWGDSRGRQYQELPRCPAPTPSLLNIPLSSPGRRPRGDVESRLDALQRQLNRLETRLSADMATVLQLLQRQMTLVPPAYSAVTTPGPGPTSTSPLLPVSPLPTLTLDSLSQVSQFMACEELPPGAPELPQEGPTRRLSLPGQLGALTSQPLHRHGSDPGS
row,Structure (SMILES),"hERG current change (%, negative = inhibition) at 1uM"
1,COc1ccc(NC(=S)NCCCn2ccnc2)cc1,10.2%
2,O=C(Nc1ccc(F)cc1F)N1CCCCC1c1cccnc1 (stereo not shown),1.11%
3,N#CC1=C2SCN(Cc3ccccc3)CN2C(=O)CC1c1ccc2c(c1)OCO2 (stereo not shown),-1.92%
4,CCN1C(=O)/C(=C2\SC(=S)N(NC(=O)c3cccnc3)C2=O)c2ccccc21,9.91%
5,Cc1noc(C)c1NC(=O)N1CCN(Cc2ccccc2)CC1,11.8%
6,O=S(=O)(c1cccc(C(F)(F)F)c1)N(CCCN1CCOCC1)Cc1cccs1,-8.41%
7,CC12CC(c3ccccc3O1)C(C(=O)NCc1ccccc1)C(=O)N2 (stereo not shown),8.85%
8,COC(=O)c1c(NC(=O)C(=O)NCCCN2CCOCC2)sc2c1CC(C)(C)OC2,11.3%
9,FC(F)(F)c1ccccc1CN1CCCC(N2CCN(c3ccccc3)CC2)C1 (stereo not shown),17.4%
10,COc1cccc(NC(=O)CSc2nc3ncc(Br)cc3[nH]2)c1,12.8%
11,Cc1c(Cl)cccc1NC(=S)NNS(=O)(=O)c1ccc([N+](=O)[O-])cc1,18.6%
12,CCC(C)NS(=O)(=O)c1ccc(N)cc1 (stereo not shown),26%
13,CC(=O)Nc1ccc(S(=O)(=O)Nc2nc(C)cc(-n3nc(C)cc3C)n2)cc1,2.5%
14,COC(=O)c1cn(NC(=O)Cn2nc([N+](=O)[O-])c(Cl)c2C)c(=O)c2ccccc12,2.91%
15,Cc1cc(NC(=O)CCl)nn1C,-3.89%
16,CC1CCc2sc(NC(=O)c3ccc(N4C(=O)CCC4=O)cc3)c(C(N)=O)c2C1 (stereo not shown),8.88%
17,COc1ccc(N(CC(=O)N/N=C/c2ccc3c(c2)OCO3)S(=O)(=O)c2ccccc2)cc1,5.63%
18,CCc1cc(OCCCSc2nc(C)cc(=O)[nH]2)ccc1Cl,-3.79%
19,Cn1c(SCC(=O)NCc2ccc3c(c2)OCO3)nnc1C1COc2ccccc2O1 (stereo not shown),-10.6%
20,CC1CCN(c2nc3c(c(=O)[nH]c(=O)n3C)n2CCCc2ccccc2)CC1,-3.38%

row,Structure (SMILES),"hERG current change (%, negative = inhibition) at 1uM"
1,COc1ccc(CN2CCS(=O)(=O)CC2)cc1OC,10.9%
2,C=CCNC(=S)NCc1cccnc1,4.47%
3,COc1ccc(CCNC(=O)CCC(=O)Nc2ccc3nc(N4CCN(C)CC4)cc(C)c3c2)cc1OC,5.53%
4,CCOC(=O)Cn1nnc(-c2ccc(SC)cc2)n1,19.5%
5,CN1CCN(CCCOc2ccc(-c3ccccc3)cc2)CC1.Cl,-38.8%
6,O=C(O)CNC(=O)c1cccc(C(F)(F)F)c1,8.98%
7,COCCNC(=O)CSc1nccn1Cc1ccc2c(c1)OCO2,8.62%
8,Cc1cc(C)n(CC(O)CN2C(=O)NC(C)(C)C2=O)n1 (stereo not shown),16.4%
9,O=[N+]([O-])c1cccc(/C=C/c2ccncc2)c1,5.04%
10,CCC1NC(=O)c2cc(S(N)(=O)=O)c(Cl)cc2N1 (stereo not shown),13%
11,Cc1c(C)n(C)c2ccc(C(=O)NCCCN3CCCCC3C)cc12 (stereo not shown),6%
12,N#CC1=C(N)N(c2ccccc2)C2=C(C(=O)CCC2)C1c1ccccc1 (stereo not shown),-4.06%
13,COc1ccc(NC(=O)C2CCCN(C(=O)Nc3ccc(F)cc3)C2)cc1 (stereo not shown),6%
14,CCCN(CCC)CCCNC(=O)c1ccc2c(c1)N(CC)C(=O)c1ccccc1S2=O (stereo not shown),-10.9%
15,COc1ccc(C(C)=O)cc1COC(=O)C1CC(=O)N(Cc2ccccc2)C1 (stereo not shown),9.83%
16,CCOC(=O)N/N=C/c1ccccc1F,2.04%
17,CC(C)C(=O)N=C1NC(=O)CS1,17.8%
18,Cc1ccc(-c2cc(-c3ccccc3)nc(N/N=C/c3cccnc3)n2)cc1,15.2%
19,CCc1ccccc1N(CC(=O)NCc1ccco1)C(=O)CCC(=O)Nc1nccs1,11.6%
20,COc1ccnc(Oc2ccccc2)c1C(=O)N/C=N/OCc1ccccc1,24.6%

row,Structure (SMILES),"hERG current change (%, negative = inhibition) at 1uM"
1,Nc1ccc(CCC(=O)N2CCCC2)cc1,17.5%
2,CCn1c(=O)n(CC)c2cc(N3CCCC3)c(NC(=O)c3c(F)cccc3F)cc21,7.53%
3,Cc1ccc(Nc2nc(N)nc(CCl)n2)cc1,13.2%
4,CCC(=O)OC1(c2cccc(C)c2)CC(C)N(C)CC1C.Cl (stereo not shown),-6.92%
5,CSc1nsc(SCC(=O)Nc2ccc(F)cc2F)n1,3.68%
6,CCC1(CC)C(=O)C2=C3C1[C@H](C(=O)OC)C=C(C(=O)OC)C[C@H]3n1c(=O)n(C)c(=O)n1[C@H]2C (stereo partly shown),19.5%
7,CCCOc1ccc(-c2nnn(CC(=O)N3CCC(C)CC3)n2)cc1,9.34%
8,CC(=O)c1cccc(NC(=O)CN2C=NS(=O)(=O)c3ccc(C)cc32)c1,2.59%
9,COc1ccc2sc(N(CCCN(C)C)C(=O)c3ccc(S(=O)(=O)N4CCc5ccccc5C4)cc3)nc2c1.Cl,3.91%
10,Cc1ccc(NC2=C(Cl)C(=O)OC2OC(=O)c2ccco2)c(C)c1 (stereo not shown),11%
11,S=c1[nH]nc(CSCc2ccc(Cl)cc2Cl)n1-c1ccccc1,-3.59%
12,CCOC(=O)c1ccc(NC(=O)N2CCN(C3CCCCC3)CC2)cc1,-0.154%
13,Cc1cccc(N/C(N)=N/c2nc(C)cc(C)n2)c1,6.77%
14,COc1ccc(CCNC(=O)c2nnc(Cc3c(F)cccc3Cl)o2)cc1OC,10.8%
15,CCOc1ccc(OCC(=O)OCC(=O)N2CCN(C(=O)c3ccco3)CC2)cc1,4.2%
16,CC1CC(C)CN(C(=S)Nc2ccc(OC(F)F)cc2)C1 (stereo not shown),-45.1%
17,COc1ccc(NC(=O)CSc2nnc(-c3ccccc3C)n2N)cc1,21.3%
18,CCOC(=O)CSc1nc2c(sc(=S)n2-c2ccccc2)c(=O)n1-c1ccc(OC)cc1OC,24.2%
